# Data: publication PMC4336329 (PLoS ONE, 2015)
# About 2,200 (0.71%) of roughly 310,000 compounds showed an effect of 50% or more. Effects have a minus sign here. Some of the results follow.
# Molecular target: human ether-à-go-go-related gene (hERG) potassium channel (human, UniProt Q12809)
# Assay: primary screen, population patch clamp on CHO cells stably expressing hERG
# Sequence of human ether-à-go-go-related gene (hERG) potassium channel (Q12809 whole entry, looked up): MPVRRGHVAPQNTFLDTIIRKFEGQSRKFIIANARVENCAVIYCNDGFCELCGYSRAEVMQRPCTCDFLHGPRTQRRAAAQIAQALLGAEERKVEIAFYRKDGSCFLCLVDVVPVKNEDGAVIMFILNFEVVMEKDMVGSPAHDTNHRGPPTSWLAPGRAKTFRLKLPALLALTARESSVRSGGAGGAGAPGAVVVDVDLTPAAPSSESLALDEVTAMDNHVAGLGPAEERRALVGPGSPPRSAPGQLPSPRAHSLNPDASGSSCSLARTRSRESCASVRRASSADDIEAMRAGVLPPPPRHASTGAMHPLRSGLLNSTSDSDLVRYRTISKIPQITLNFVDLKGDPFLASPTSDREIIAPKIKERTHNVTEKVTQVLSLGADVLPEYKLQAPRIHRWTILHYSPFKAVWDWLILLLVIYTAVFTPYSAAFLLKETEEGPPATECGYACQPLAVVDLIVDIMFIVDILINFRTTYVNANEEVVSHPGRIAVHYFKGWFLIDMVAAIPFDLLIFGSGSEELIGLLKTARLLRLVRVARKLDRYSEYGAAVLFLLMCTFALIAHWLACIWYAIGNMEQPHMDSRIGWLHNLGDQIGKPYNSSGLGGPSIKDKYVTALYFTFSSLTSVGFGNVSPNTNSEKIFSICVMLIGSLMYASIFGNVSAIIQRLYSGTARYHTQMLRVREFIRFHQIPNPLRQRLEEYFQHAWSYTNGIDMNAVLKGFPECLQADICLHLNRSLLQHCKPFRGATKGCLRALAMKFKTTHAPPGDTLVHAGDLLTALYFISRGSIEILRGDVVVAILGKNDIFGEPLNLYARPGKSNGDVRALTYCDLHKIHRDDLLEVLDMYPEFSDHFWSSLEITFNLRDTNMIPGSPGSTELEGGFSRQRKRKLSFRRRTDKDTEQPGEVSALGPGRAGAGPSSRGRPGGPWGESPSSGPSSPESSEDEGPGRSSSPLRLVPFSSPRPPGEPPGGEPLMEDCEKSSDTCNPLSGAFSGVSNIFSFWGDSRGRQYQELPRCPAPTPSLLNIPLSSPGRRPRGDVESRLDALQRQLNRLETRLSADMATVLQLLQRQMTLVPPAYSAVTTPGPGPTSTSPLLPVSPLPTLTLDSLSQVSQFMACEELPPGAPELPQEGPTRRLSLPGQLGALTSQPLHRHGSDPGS
row,SMILES,"hERG current change (%, negative = inhibition) at 1uM"
1,COc1ccccc1-c1c(C)nn2c(C)c(C(C)=O)cnc12,7.12%
2,Cc1nnc(SCC(=O)NNC(=O)c2ccc(Cl)cc2)s1,19.1%
3,Cc1ccc(-c2csc(SCC(=O)Nc3cc(C)on3)n2)cc1,-1.6%
4,Cc1ccc(C(=O)NCCCN2CCOCC2)c(Cl)c1,14.4%
5,CCCN1CCc2c(sc(NC(=S)NC(=O)c3ccccc3)c2C#N)C1,11.5%
6,COc1ccccc1CCC(=O)OCC(=O)Nc1cccc(S(=O)(=O)N2CCOCC2)c1,0.0189%
7,O=C(COc1cccc(F)c1)NNC(=O)Cc1ccc(Br)cc1,12.4%
8,CC1(C)CC(NCCC(c2ccccc2)c2ccco2)CCO1 (centres unmarked),-22.9%
9,COc1ccc2oc(=N)c(C(=O)Nc3ccc(Cl)cc3)cc2c1,12.1%
10,Cc1ccc(-n2c(SCC(=O)Nc3ccc4c(c3)OCCO4)nnc2-c2ccco2)cc1,-17.5%
11,N#Cc1cn(Cc2ccccc2)c(=O)[nH]c1=O,15.9%
12,CC1(C)CC(=O)c2cnc(N)nc2C1,11.3%
13,CC(C)Cc1cc(C(=O)Nc2sc3c(c2C#N)CCC3)no1,8.6%
14,Cc1ccccc1-c1nc(CS(=O)(=O)CC(=O)NC(C)c2ccccc2)c(C)o1 (centres unmarked),11.9%
15,C/C(=N\NC(N)=S)C1=CCC2C3CC[C@H]4CC(O)CC[C@]4(C)C3CC[C@]12C (some centres unmarked),1.41%
16,Cc1ccc2c(c1)nnn2C1CCN(S(=O)(=O)c2ccc(C(=O)N(C)C)cc2)CC1,-12.6%
17,Cc1ccc(NC(NC(=O)c2cccnc2)C(Cl)(Cl)Cl)cc1 (centres unmarked),7.94%
18,CCOCCCNC(=O)c1ccccc1SCC,0.338%
19,Cc1cc(C)nc(NCc2ccc(Cl)cc2)n1.Cl,10.3%
20,O=C(CSc1nnc(NC(=O)C2CC2)s1)Nc1ccc(F)cc1,17.2%
21,Cc1cccc(CN2CCC(Oc3ccc(C(=O)N4CCCCC4)cc3)CC2)c1,7.21%
22,COC(=O)CCc1sc(Nc2ccccc2)nc1-c1ccc(OC)cc1,8.21%
23,CSc1nc2ccccc2cc1/C=C(\C#N)c1ccc(Cl)c(Cl)c1,8.86%

row,SMILES,"hERG current change (%, negative = inhibition) at 1uM"
1,CCn1c(=O)c([N+](=O)[O-])c(NCCc2ccc(OC)c(OC)c2)c2ccccc21,6.82%
2,CC(=O)N1N=C(c2ccc(Cl)cc2)OC12CCCC2,8.68%
3,CCCSc1nn2c(=O)c3ccccc3nc2s1,6.86%
4,CCN(CC)C(=O)C(C)N(C#N)c1nc(SC)nc(N(C)C)n1 (centres unmarked),-5.14%
5,COc1cnc(SC(C)C)[nH]c1=O,19.4%
6,O=C1CC(=O)N(c2cccc(F)c2)C(=O)N1,16.9%
7,CNc1nc2c(N)ncnc2n1[C@H]1O[C@@H](CO)[C@H](O)[C@@H]1O,7.61%
8,CC(C)CN=CC1=C(O)c2ccccc2C1=O,-28%
9,CN1CCc2c(c3ccccc3n2Cc2ccccc2)C1.Cl,-30.9%
10,Oc1ccccc1-c1nnc2n1CCCCC2,10.6%
11,COc1ccc(CCNC(=O)C2CCCN(S(=O)(=O)c3ccc(OC)cc3)C2)cc1 (centres unmarked),-7.05%
12,CCOC(=O)N1CCC(N(CCN(C)C)C(=S)Nc2cc(Cl)ccc2C)CC1,3.01%
13,O=C(c1ccco1)N1CCN(S(=O)(=O)c2cccc(Cl)c2)CC1,4.12%
14,COC(=O)c1ccc(-c2ccco2)n1Cc1cccc(C)c1,10.5%
15,Cc1ccc(-c2noc(CCCC(=O)NC3CCCCC3)n2)cc1,7.88%
16,COc1cccc(-c2csc3nnc(SCC(=O)NCc4cccs4)n23)c1,6.37%
17,CC(C)[C@H](N)C(=O)OCCOCn1cnc2c(=O)[nH]c(N)nc21.Cl,2.41%
18,CC(=O)Nc1ccc(NC(=O)CCN2C(=O)C3CC=CCC3C2=O)cc1 (centres unmarked),13.7%
19,COc1ccc(NC(=O)C2(S(=O)(=O)c3ccc(C)cc3)CC2)cc1,7.69%
20,O=C(O)C(=O)O.O=[N+]([O-])c1ccccc1OCCNCc1ccccc1,10.9%
21,Oc1ccc(Cl)cc1C=NCCc1ccccc1,7.22%
22,CCc1cc2c(SCC(=O)N3CCCC3=O)ncnc2s1,-3.34%
23,CCN(CC)C(=O)CSc1nc(C)cc(C)c1C#N,6.98%

row,SMILES,"hERG current change (%, negative = inhibition) at 1uM"
1,O=C(CN1CCN(C(=O)c2cccc(S(=O)(=O)N3CCCC3)c2)CC1)Nc1ccc(F)cc1,-15%
2,Cc1cc(C)cc(-n2ncc3c2CCCC3NC(=O)c2cc(C)oc2C)c1 (centres unmarked),9.68%
3,Cc1ccc(C(=O)OCC(=O)NCc2cccs2)cc1,2.15%
4,CC(C)(C)c1nnc(NC(=O)C2c3ccccc3Oc3ccccc32)s1,5.57%
5,Cc1cc(NC(=O)CSc2nncn2-c2ccccc2)no1,8.45%
6,COc1ccccc1-c1nc2s/c(=C\c3cccs3)c(=O)n2n1,9.81%
7,O=C(CSc1nnc(-c2ccncc2)o1)Nc1ccccc1C(F)(F)F,0.939%
8,CCOC(=O)C1CCN(C(=O)COc2ccc(Cl)cc2Cl)CC1,-4.79%
9,O=C(NCc1cccc(C(F)(F)F)c1)c1cc(-c2ccccc2)nn1CC1CC(c2cccnc2)=NO1 (centres unmarked),11.4%
10,Nc1ncc(-c2ccc([N+](=O)[O-])cc2)cn1,-0.958%
11,CC(=O)NC12CC3CC(C1)CC(C(=O)N1CCN(S(=O)(=O)c4cccs4)CC1)(C3)C2,-0.585%
12,Cc1ccc(CN2C(=O)CCC2C(=O)N2CCN(c3ccccc3)CC2)cc1 (centres unmarked),-5.73%
13,NS(=O)(=O)c1ccc(NC(=S)N2CCN(c3ccccc3Cl)CC2)cc1,12%
14,CN(c1ccccc1)S(=O)(=O)c1cccc(C(=O)NNC(=O)c2ccncc2)c1,-25%
15,CCCn1nnnc1SCC(=O)c1ccc(NC(C)=O)cc1,11.7%
16,C=CCn1c(SCc2ccccc2)nc(O)cc1=O,0.554%
17,c1ccc(-c2oc3ncnc(NCCCn4ccnc4)c3c2-c2ccccc2)cc1,-11.9%
18,O=C(NCc1n[nH]c(=S)n1-c1ccc(Br)cc1)c1cccs1,17.2%
19,O=S(=O)(/N=C/c1c(O)ccc2ccccc12)c1ccccc1,10.6%
20,CCN(CC)c1ccc(/C=N/Nc2nc3ccccc3[nH]2)c(O)c1,0.421%
21,CCSc1nnc(NC(=O)Cc2ccc(OC)c(OC)c2)s1,1.76%
22,COc1cc(NS(=O)(=O)c2cn(C)cn2)cc(OC)c1OC,7.59%
23,O=C(Nc1cccc(C(F)(F)F)c1)c1cccc(NS(=O)(=O)c2ccc(Br)c(C(=O)O)c2)c1,11.1%

row,SMILES,"hERG current change (%, negative = inhibition) at 1uM"
1,Cc1c(N2C(=O)/C(=C\c3ccc(N(C)C)cc3)N(C)C2=S)c(=O)n(-c2ccccc2)n1C,11.9%
2,COc1ccc(C(=O)NC(=S)N(CCC(C)C)c2c(N)n(Cc3ccccc3)c(=O)[nH]c2=O)cc1,-0.0572%
3,Cc1cccc(C)c1NC(=O)CNC(=O)C(C)NC(C)c1ccccc1Br (centres unmarked),12.5%
4,CN1/C(=C/C2CC(=O)NC2=O)C(C)(C)c2ccccc21 (centres unmarked),-2.34%
5,CN(C)c1ccc([P+](=O)c2ccc(N(C)C)cc2)cc1,9.34%
6,CCCCCNC(=O)CCn1c(=O)oc2ccccc21,9.63%
7,Cc1c(OCC(=O)NC2CCN(Cc3ccccc3)CC2)ccc2c3c(c(=O)oc12)CCC3,-6.73%
8,CCc1cc(=O)oc2cc(OC3CCCCC3=O)ccc12 (centres unmarked),13.9%
9,CCOc1ccc(CN(C)Cc2cc(=O)oc3cc(C)c(Cl)cc23)cc1,7.69%
10,COc1ccc(NC(=O)NC2(C(=O)N3CCCC3)CCCCC2)cc1,20%
11,O=C(CCC1CCCCC1)Nc1cccnc1,12.9%
12,O=C(O)c1ccc(S(=O)(=O)N2CCC3(CC2)CC(=O)c2ccccc2O3)cc1,10.5%
13,CNc1nc2ccccc2n1/N=C/c1cccc(OC)c1OC,-1.07%
14,COc1ccccc1C(=O)NC(=O)COC(=O)CNC(=O)c1ccc(Cl)c([N+](=O)[O-])c1,-15.6%
15,CCOC(=O)N1CCN(C(=O)Cn2ncc3c2-c2ccccc2OC3)CC1,11.2%
16,CS(=O)(=O)N1CCC(Oc2ccccc2C(=O)N2CCCCC2CO)CC1 (centres unmarked),7.76%
17,CCOC(=O)CSc1nnc(-c2ccc(OC)cc2OC)o1,1.69%
18,Cc1ccc(NC(=O)Nc2cccs2)cc1,0.962%
19,Cn1cc(S(=O)(=O)NCCc2ccccc2)c(=O)n(C)c1=O,4%
20,COc1cccc(N2C(=O)Nc3ccc(Br)cc3C2(O)C(=O)NCCCN(C)C)c1 (centres unmarked),14%
21,O=C(NCCc1ccc(F)cc1)c1ccc2nccnc2c1,4.47%
22,COCCN1CCN(C(=O)c2cc(COc3cc(C)ccc3C)on2)CC1,13.8%
23,CC(=O)c1c(C)[nH]c(C(=O)OCc2cccc(Cl)c2)c1C,15.3%
